How the values were obtained:
[1] = molecular target: rat apo-sGC (H105F) (rat) (UniProt P19686); assay: capture ELISA: IgG coated at 5 ug/mL, rat apo-sGC (H105F) titrated, streptavidin-HRP, OD 450 nm; the axis gives the sGC concentration
[2] = molecular target: Human apo-sGC (H105F) (human) (UniProt Q02108); assay: capture ELISA: IgG coated at 5 ug/mL, human apo-sGC (H105F) titrated, streptavidin-HRP, OD 450 nm; the axis gives the sGC concentration
[3] = molecular target: rat apo-sGC (H105F) (rat) (UniProt P19686); assay: SPR
[4] = molecular target: Human apo-sGC (H105F) (human) (UniProt Q02108); assay: SPR

Sequence of UniProt P19686 (P19686 whole entry, chain 1 of 2): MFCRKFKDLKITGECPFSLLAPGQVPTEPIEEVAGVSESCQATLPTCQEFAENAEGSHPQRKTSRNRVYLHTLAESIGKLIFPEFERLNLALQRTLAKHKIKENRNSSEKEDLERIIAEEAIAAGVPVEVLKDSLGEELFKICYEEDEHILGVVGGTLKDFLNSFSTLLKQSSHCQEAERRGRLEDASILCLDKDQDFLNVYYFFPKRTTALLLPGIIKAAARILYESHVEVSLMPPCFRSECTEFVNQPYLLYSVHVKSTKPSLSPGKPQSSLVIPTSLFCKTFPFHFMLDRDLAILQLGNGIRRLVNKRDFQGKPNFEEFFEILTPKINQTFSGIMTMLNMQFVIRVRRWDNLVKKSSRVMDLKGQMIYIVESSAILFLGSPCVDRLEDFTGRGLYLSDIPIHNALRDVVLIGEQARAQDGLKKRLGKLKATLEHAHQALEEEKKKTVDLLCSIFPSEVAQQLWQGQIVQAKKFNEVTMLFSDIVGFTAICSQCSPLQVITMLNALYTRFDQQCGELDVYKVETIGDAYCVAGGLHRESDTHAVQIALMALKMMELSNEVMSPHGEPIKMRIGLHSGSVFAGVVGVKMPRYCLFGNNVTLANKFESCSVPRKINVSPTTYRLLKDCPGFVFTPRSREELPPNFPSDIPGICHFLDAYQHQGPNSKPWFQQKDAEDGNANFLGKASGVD
Sequence of UniProt P19686 (P20595 whole entry H105F, chain 2 of 2, further chain): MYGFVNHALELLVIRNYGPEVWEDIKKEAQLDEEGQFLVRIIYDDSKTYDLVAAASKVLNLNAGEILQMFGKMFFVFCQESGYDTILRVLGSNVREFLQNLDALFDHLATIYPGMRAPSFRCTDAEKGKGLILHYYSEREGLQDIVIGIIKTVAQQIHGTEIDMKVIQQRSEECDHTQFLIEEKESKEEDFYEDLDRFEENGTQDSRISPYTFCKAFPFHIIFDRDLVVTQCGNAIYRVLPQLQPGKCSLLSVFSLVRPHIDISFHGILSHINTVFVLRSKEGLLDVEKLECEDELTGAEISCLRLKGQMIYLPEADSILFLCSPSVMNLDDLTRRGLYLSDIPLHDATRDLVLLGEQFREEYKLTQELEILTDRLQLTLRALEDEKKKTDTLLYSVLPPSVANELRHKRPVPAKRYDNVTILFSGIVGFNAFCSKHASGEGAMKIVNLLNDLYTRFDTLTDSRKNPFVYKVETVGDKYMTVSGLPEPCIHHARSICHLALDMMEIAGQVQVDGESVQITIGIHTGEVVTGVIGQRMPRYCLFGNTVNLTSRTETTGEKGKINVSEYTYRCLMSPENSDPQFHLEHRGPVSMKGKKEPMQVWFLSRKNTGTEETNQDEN
Sequence of UniProt Q02108 (Q02108 whole entry, chain 1 of 2): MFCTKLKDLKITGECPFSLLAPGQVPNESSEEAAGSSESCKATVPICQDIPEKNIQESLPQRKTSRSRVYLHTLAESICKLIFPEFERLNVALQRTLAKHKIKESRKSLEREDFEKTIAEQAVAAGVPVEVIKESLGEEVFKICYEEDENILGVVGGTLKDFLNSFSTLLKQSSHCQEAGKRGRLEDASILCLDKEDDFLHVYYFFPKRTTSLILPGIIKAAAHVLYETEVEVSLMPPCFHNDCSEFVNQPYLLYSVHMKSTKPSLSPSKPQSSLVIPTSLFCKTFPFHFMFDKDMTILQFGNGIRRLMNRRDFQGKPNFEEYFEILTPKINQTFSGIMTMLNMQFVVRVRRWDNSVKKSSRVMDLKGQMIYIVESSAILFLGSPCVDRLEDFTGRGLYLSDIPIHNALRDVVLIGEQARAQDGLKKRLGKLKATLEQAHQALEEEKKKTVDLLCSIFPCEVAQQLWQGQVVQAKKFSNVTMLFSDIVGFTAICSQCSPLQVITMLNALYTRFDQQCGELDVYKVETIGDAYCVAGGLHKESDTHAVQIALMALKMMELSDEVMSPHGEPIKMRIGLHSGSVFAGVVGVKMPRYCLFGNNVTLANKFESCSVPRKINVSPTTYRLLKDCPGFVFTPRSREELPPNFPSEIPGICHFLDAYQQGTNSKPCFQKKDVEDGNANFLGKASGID
Sequence of UniProt Q02108 (Q02153 whole entry H105F, chain 2 of 2, further chain): as the sequence (P20595 whole entry H105F, chain 2 of 2, further chain) above, with S171N, D205E, K247N, A299T, N615K, E618D, N619D counted along it

B1: TPP15717 (antibody, human IgG1, lambda, V domains shown)
VH: [about 100 residues not spelt out]EQWLGAEGAFDIWGQGTLVTVSS
VL: QSVLTQPPSASGTPGQRVTISCTGSSSNIGAGYVVHWYQQLPGTAPKLLIYNNSQRPPGVPDRFSGSKSGTSASLAISGLRSEDEADYYCASWDDSLSGVVFGGGTKLTVLG
- EC50 (read off the curve) [1]: 50 nM
- EC50 (read off the curve) [2]: 60 nM
- Kd [3]: 45 nM
- Kd [4]: 72 nM

From patent US20220128561A1
